Some of the results follow. The main result of the screen is listed elsewhere. These columns were measured beside it and carry no call. Square brackets hold non-standard residues; d marks the D form. Peptide text beside a SMILES is read from it. ξ: configuration not given here. ξLac(3-iPr) = CC(C)CC(O)C(=O)O; NMeV = CN[CH](C(=O)O)C(C)C; NMeA = CN[CH](C)C(=O)O; βAla = NCCC(=O)O

Common to all, as to test: Primary Screen for Target Class Profiling of Small Molecule Inhibitors of Methyltransferases
The target of assay [1] is Glycine N-methyltransferase (Homo sapiens) (UniProt Q14749). Particulars: purified enzyme, MTase-Glo SAH luminescence; measured here: GNMT inhibition; at 40 µM; stronger effect = lower value. In short, it runs like this: (§1)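 Each enzyme was assayed with SAM and its substrate. SAH formation detected by MTase-Glo luminescence; single-point 40 uM screen[…].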
Assay [2] has as its target Guanidinoacetate N-methyltransferase (Homo sapiens) (UniProt Q14353). Particulars: purified enzyme, MTase-Glo SAH luminescence; measured here: GAMT inhibition; at 40 µM; stronger effect = lower value. In short, it runs like this:
as §1

Assay [3] concerns the target Histamine N-methyltransferase (Homo sapiens) (UniProt P50135). Particulars: purified enzyme, MTase-Glo SAH luminescence; measured here: HNMT inhibition; at 40 µM; stronger effect = lower value. In short, it runs like this:
as §1

For assay [4], the target named is Nicotinamide N-methyltransferase (Homo sapiens) (UniProt P40261). Particulars: purified enzyme, MTase-Glo SAH luminescence; measured here: NNMT inhibition; at 40 µM; stronger effect = lower value. An outline of the steps: as §1
Assay [5] deals with Phenylethanolamine N-methyltransferase (Homo sapiens) (UniProt P11086). Particulars: purified enzyme, MTase-Glo SAH luminescence; measured here: PNMT inhibition; at 40 µM; stronger effect = lower value. In short, it runs like this: as §1
% is scaled to controls: 0 for no effect and ±100 for the full control effect.

For the compound `CCC(C)C1NC(=O)C2CCCN2C(=O)C(CC(C)C)OC(=O)CCNC(=O)C(C)N(C)C(=O)C(C(C)C)N(C)C1=O` (stereo not drawn) (cyclo([ξLac(3-iPr)]PI[NMeV][NMeA][βAla]); configuration not given here), the activity change, negative = inhibition in assay [1] is 3.23%; in assay [2] it was 2%; in assay [3] it was 11.4%; in assay [4], -10.1%; in assay [5], 5.84%.
`COC1C(O)C(C)OC(OC2C(CO)O[C@@H](O[C@@H]3CC4CCC5C(CC[C@]6(C)[C@@H](C7=CC(=O)OC7)CC[C@]56O)[C@@]4(C)[C@H](OC(C)=O)C3)C(O)C2O)C1O` (stereo partly drawn): the activity change, negative = inhibition in assay [1] is 2.53%; in assay [2], 3.17%; in assay [3], 9.33%; in assay [4], -8.49%; in assay [5] it was 5.99%.
As for `Cc1ccccc1C1c2cccn2-c2ccccc2CN1C(=O)Nc1cccc(Br)c1` (stereo not drawn), the activity change, negative = inhibition amounted to 15.7% in assay [1]; 1.18% in assay [2]; 8.26% in assay [3]; 10.2% in assay [4]; 9.62% in assay [5].
In the case of `COc1ccc(NC(=O)N2Cc3ccccc3-n3cccc3C2c2ccc(C)cc2)cc1` (stereo not drawn), the activity change, negative = inhibition in assay [1] is 1.79%; in assay [2] it was 1.98%; in assay [3], 1.99%; in assay [4], -0.771%; in assay [5], -2.17%.
For `CCc1ccc(C2c3cccn3-c3ccccc3CN2C(=O)Nc2ccc3c(c2)OCCO3)cc1` (stereo not drawn), in that order: 13.5%, 3.89%, 5.25%, 7.33% and 10.3%.
The like results for `NCCc1c[nH]c2ccc(O)cc12` were, in that order, 1.15%, 9.29%, -41%, 0.738% and 10.5%.
For `COC(=O)C1=COC(C)C2CN3CCC4(C(=O)Nc5ccccc54)C3CC12` (stereo not drawn), in that order: -4.22%, -2.94%, 1.77%, -14.5% and -3.73%.
As to `C=C[C@H]1CN2CC[C@H]1C[C@@H]2CNC(=O)CC(C)(C)C`, the activity change, negative = inhibition in assay [1] was -5.86%; in assay [2] it was -6.79%; in assay [3], -2.02%; in assay [4], -5.9%; in assay [5], -5.12%.
The like results for `Cc1ccc(CN2C[C@@H]3C(=O)N(C)C(=O)[C@@H]3C2)o1` were, in that order, -8.67%, -10.3%, -4.84%, -5.18% and -7.39%.
For `COC(=O)c1ccccc1NC(=O)N1Cc2ccccc2-n2cccc2C1c1ccc(C)cc1` (stereo not drawn), in that order: 5.41%, 3.07%, -6.07%, -3.82% and -0.716%.
For `C[C@@H]1CN(Cc2ccc(F)cc2)CCN1C(=O)COc1ccc(Cl)cc1NC(N)=O`, in that order: 4.67%, 4.69%, 0.291%, -13.5% and -23.1%.
For `Cc1ccccc1C1c2cccn2-c2ccccc2CN1C(=O)Nc1ccccc1Br` (stereo not drawn), the activity change, negative = inhibition in assay [1] is 2.25%; in assay [2], 4.14%; in assay [3], -1.31%; in assay [4], -2.9%; in assay [5], -1.6%.
For `CCc1ccc(C2c3cccn3-c3ccccc3CN2C(=O)Nc2cccc(SC)c2)cc1` (stereo not drawn), in that order: 7.71%, 0%, 1.53%, 1.98% and 5.28%.
The like results for `O=C(NCCc1ccccc1)N1Cc2ccccc2-n2cccc2C1c1cccs1` (stereo not drawn) were, in that order, 6.61%, 0%, -13.9%, -6.66% and 1.07%.
For `CCC1c2cccn2-c2ccccc2CN1C(=O)Nc1cccc(Cl)c1C` (stereo not drawn), in that order: 1.01%, 0%, 2.4%, 10.9% and 8.07%.
Regarding `C[C@@H]1CC[C@H]2[C@@H](C)C(=O)O[C@@H]3O[C@@]4(C)CC[C@@H]1[C@]32OO4`, the activity change, negative = inhibition in assay [2] is -5.34%; in assay [4], -17.2%; in assay [5], -13.4%.
As for `OC1(c2ccc(Cl)cc2)c2ccccc2C2=NCCN21` (stereo not drawn), the activity change, negative = inhibition is -0.803% in assay [1]; 8.52% in assay [2]; -8.77% in assay [3]; -13.2% in assay [4]; 4.01% in assay [5].
Turning to `COc1c(C(C)C)cc2c(c1O)[C@@]1(C(=O)O)CCCC(C)(C)C1CC2` (stereo partly drawn), the activity change, negative = inhibition in assay [1] is -0.021%; in assay [2], -3.53%; in assay [3], -5.46%; in assay [4], -20.6%; in assay [5], -3.38%.
In the case of `CCc1ccc(C2c3cccn3-c3ccccc3CN2C(=O)Nc2ccc(OC)c(OC)c2)cc1` (stereo not drawn), the activity change, negative = inhibition was determined as 8.77% in assay [1]; 1.56% in assay [2]; 3.9% in assay [3]; 6.8% in assay [4]; 5.12% in assay [5].
For `Cc1ccc(NC(=O)N2Cc3ccccc3-n3cccc3C2C)cc1Cl` (stereo not drawn), in that order: 12.4%, 0%, 9.59%, 7.39% and 6.05%.
For `CS(=N)(=O)CC[C@H](N)C(=O)O` (stereo partly drawn), in that order: -9.31%, 1.2%, 0.411%, -3.27% and 5.41%.
For `CC1c2cccn2-c2ccccc2CN1C(=O)Nc1cccc(Cl)c1` (stereo not drawn), in that order: 2.15%, 4.63%, -4.54%, -2% and 2.08%.
For `C[C@]12CC[C@H]3[C@@H]([C@H](O)CC4=CC(=O)CC[C@@]43C)[C@@H]1CC[C@@H]2O`, the activity change, negative = inhibition in assay [1] is 5.73%; in assay [2], 5.28%; in assay [3], 5.69%; in assay [4] it was -8.65%; in assay [5], 1.5%.
For `CCOC(=O)c1ccccc1NC(=O)N1Cc2ccccc2-n2cccc2C1c1ccccc1Cl` (stereo not drawn), in that order: 5.71%, 0%, 0.803%, 1.34% and 0.235%.
In the case of `COC(=O)CCNC(=O)N1Cc2ccccc2-n2cccc2C1c1ccccc1Cl` (stereo not drawn), the activity change, negative = inhibition in assay [1] is 7.87%; in assay [2], 0%; in assay [3], 4.81%; in assay [4], 1.96%; in assay [5], 2.18%.
The like results for `Cc1c(Cl)c(OCC(=O)N2CCN(C)CC2)nc2sc(C(=O)NC3CC3)c(N)c12` were, in that order, -4.35%, -3.52%, -4.89%, -20.5% and -9.32%.
`COc1cccc(NC(=O)N2Cc3ccccc3-n3cccc3C2c2cccc(C)c2)c1` (stereo not drawn): the activity change, negative = inhibition in assay [1] is 6.65%; in assay [2], 0.148%; in assay [3], -1.99%; in assay [4], -4.53%; in assay [5], -0.69%.
The like results for `Cc1ccc(C2c3cccn3-c3ccccc3CN2C(=O)Nc2ccccc2)cc1` (stereo not drawn) were, in that order, 10.4%, 1.5%, -1.48%, -6.57% and -1.58%.
For `CCOC(=O)c1cccc(NC(=O)N2Cc3ccccc3-n3cccc3C2c2ccc(SC)cc2)c1` (stereo not drawn), in that order: 2.05%, 3.53%, 4.08%, 6.73% and 10.9%.
Regarding `COc1cccc(NC(=O)N2Cc3ccccc3-n3cccc3C2c2ccc(F)cc2)c1` (stereo not drawn), the activity change, negative = inhibition was -5.15% in assay [1]; 0% in assay [2]; 1.27% in assay [3]; 1.21% in assay [4]; 6.48% in assay [5].
For `Cc1ccc(S(=O)(=O)N[C@@H](CCCCN)C(=O)CCl)cc1`, in that order: -19.2%, 5.24%, -2.77%, -5.69% and 5.37%.
For `O=C(NCc1ccc(F)cc1)[C@H]1CN2CC[C@H]1C[C@@H]2Cn1cc(-c2ccccc2)nn1`, in that order: -5.59%, -6.59%, -6.28%, -9.98% and -0.811%.
As to `CCCN1CCC[C@@H](c2cccc(O)c2)C1`, the activity change, negative = inhibition in assay [1] was 5.46%; in assay [2], 11.6%; in assay [3], -26.6%; in assay [4], -2.39%; in assay [5], 6.81%.
For `O=C(C1CCC1)N1[C@H]2CC[C@@H]1c1cnc(-c3ccccc3)nc1C2`, in that order: -5.32%, -6.16%, -2.74%, -15.8% and -16.8%.
For `O=C(Oc1ccc([N+](=O)[O-])cc1)N1CCC(C(O)(c2ccc3c(c2)OCO3)c2ccc3c(c2)OCO3)CC1`, in that order: -1.83%, -26.4%, -1.5%, -31.3% and -9.53%.
The like results for `Cc1ccc(C2c3cccn3-c3ccccc3CN2C(=O)Nc2cccc(Br)c2)cc1` (stereo not drawn) were, in that order, 12.1%, 0%, 8.9%, 11.6% and 7.58%.
For `COc1cccc(NC(=O)N2Cc3ccccc3-n3cccc3C2c2cccs2)c1` (stereo not drawn), the activity change, negative = inhibition was 3.15% in assay [1]; 4.94% in assay [2]; -1.04% in assay [3]; -7.52% in assay [4]; 3.67% in assay [5].
The like results for `C1=C(c2cnc[nH]2)c2ccsc2CC1` were, in that order, -16.2%, -18.7%, -14%, -25.9% and -31.7%.
For `C=C(C)[C@@]12O[C@@H]1[C@@]1(C)C(=C[C@H]2O)CC[C@@H](O)[C@@H]1C`, in that order: 0%, 6.06%, 10.7%, -6.16% and 0.297%.

Source of the values: PubChem BioAssay AID1745853 (National Center for Advancing Translational Sciences (NCATS), 2022).
